Data on three molecules can be found in patent US20250000991A1, “NECTIN-4 ANTIBODIES AND ANTIBODY-DRUG CONJUGATES” (Eli Lilly and Company, priority 2023, published 2025).

For one assay, the system named is cyno Nectin-4. The experiment in a line: Surface plasmon resonance (Biacore 8K+) binding of nectin-4 ADCs to cyno Nectin-4. Particulars: cyno Nectin-4, 37° C., ADC Formula XI DAR 8, n=1. The protocol: (§1) An anti-human Fc sensor surface was prepared by amine-coupling of goat anti-human IgG Fc (Southern Biotech Cat. No. 2014-01, Birmingham, AL) to a Biacore Series S CM4 (Cytiva Cat. No. BR-100534) sensor surface at 25° C. For immobilization, a running buffer of 10 mM HEPES, 150 mM NaCl, 0.05% Tween-20, pH 7.4 was used. Flow cells 1 & 2 of all 8 channels were activated with a 1:1 (v/v) mixture of 400 mM 1-Ethyl-3-(3-dimethylaminopropyl) carbodiimide hydrochloride (EDC) and […] N-Hydroxysuccinimide (NHS) at a flow rate of 10 uL/min for 7 minutes. Then the anti-human IgG Fc capture reagent was coupled to the sensor surface (diluted to 50 μg/mL in 10 mM Acetate pH 4.5 buffer) by injecting it in all flow cells and channels at a flow rate of 10 uL/min for 7 minutes. Remaining active groups were blocked by injecting 100 mM ethylenediamine (in 200 mM Borate buffer, pH 8.5) in all flow cells and channels at a flow rate of 10 uL/min for 7 minutes. All channels and flow cells were then preconditioned using three consecutive 1-minute injections of 75 mM phosphoric acid at 10 uL/min.
(§2) In each analysis cycle, a different ADC was captured on flow cell 2 of each channel by injecting it at 5 μg/mL and 10 uL/min. After capture, the same analyte was injected on flow cells 1 and 2 in all 8 channels for 2 minutes at 30 uL/n and dissociation was monitored for 10 minutes. After dissociation, all surfaces were regenerated with three 1-minute injections of 5 mM phosphoric acid at 10 uL/min. ADC capture and analyte cycles were repeated to obtain analyte binding of each ADC at concentrations of 0, 2.5, 7.4, 22, 67, 200 and 600 nM nectin-4.
(§3) Sensorgram data were fit globally with the default 1:1 binding model in Biacore Insight Evaluation Software v3.0.12.15655.

The subject of assay [1] is T24 mScarlet clone 5 Nectin-4 negative cells. The experiment in a line: Bystander killing of T24-mScarlet clone 5 cells co-cultured with T24-human nectin4 clone108 (imaging). Type of assay: cell-based. Particulars: T24-mScarlet clone5 : T24-human nectin4 clone108 9:1, 5 days, ADC Formula XI DAR 8; read-out: IC50 of bystander effect. The method, then: T24 cell line was engineered to express mScarlet and clonally selected to test in bystander assay. T24-mScarlet clone5 and T24-human nectin4 clone108 were mixed and seeded at a total of 1000 cells/well/100 ul with a ratio of 9:1 in culture medium (McCoy's 5A+1× GlutaMax+10% Heat Inactivated Fetal Bovine Serum+400 μg/ml G418) in flat clear bottom 96-well plates. T24 mScarlet clone 5 cells were negative for nectin-4 expression. Plates were incubated at 37° C. with 5% CO2 overnight. Next day, ADCs were added at final working concentration from 50 nM, 1:4 serially diluted in culture medium. Plates were covered with Breathe-Easy® sealing membrane, placed in BioSpa and scanned in Cytation5 every day for 5 days.
Images of T24-mScarlet cells were captured and analyzed by Cytation5 with Gen5 Image Prime 3.11. Percentage of T24-mScarlet cell killing was calculated by decreased Integrated Intensity (area×mean intensity), normalized to zero hour and no treatment. Data was graphed and analyzed using GraphPad Prism version 9.5.1. IC50 was determined via log(inhibitor) vs. response-variable slope (four parameters) curve fitting.

For the next assay, the target named is T1, human Nectin-4 (Homo sapiens, UniProt Q96NY8).
T1 construct: His tag; purchased Acro Biosystems NE4-H52H3
T1 sequence (Q96NY8 32-510): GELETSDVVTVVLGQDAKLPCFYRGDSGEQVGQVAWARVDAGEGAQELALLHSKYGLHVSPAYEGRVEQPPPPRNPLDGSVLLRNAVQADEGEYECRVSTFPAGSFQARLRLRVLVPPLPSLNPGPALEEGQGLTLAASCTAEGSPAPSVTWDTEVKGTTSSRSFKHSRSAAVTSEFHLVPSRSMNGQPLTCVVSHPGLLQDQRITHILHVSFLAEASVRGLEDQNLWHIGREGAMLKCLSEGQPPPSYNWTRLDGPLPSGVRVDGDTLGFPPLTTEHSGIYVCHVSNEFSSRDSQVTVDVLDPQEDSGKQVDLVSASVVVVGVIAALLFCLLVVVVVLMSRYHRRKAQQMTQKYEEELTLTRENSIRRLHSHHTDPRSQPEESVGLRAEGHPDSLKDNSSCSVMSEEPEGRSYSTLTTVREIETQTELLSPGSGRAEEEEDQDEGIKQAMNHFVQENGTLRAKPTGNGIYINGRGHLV
The experiment in a line: Surface plasmon resonance (Biacore 8K+) binding of nectin-4 ADCs to human Nectin-4. The following applies: human Nectin-4, 37° C., ADC Formula XI DAR 8; n=3 mean ± SD, n=2 replicate values. The method, then:
as §1, §2, §3

A further assay relates to rat Nectin-4. The experiment in a line: Surface plasmon resonance (Biacore 8K+) binding of nectin-4 ADCs to rat Nectin-4. Particulars: rat Nectin-4, 37° C., ADC Formula XI DAR 8, n=1. The method, then:
as §1, §2, §3

Another assay has as its system MDA-MB-468 xenograft. The experiment in a line: Tumor xenograft, moderate nectin-4 expression. Type of assay: in vivo, NSG mice. Particulars: MDAMB468 xenograft, single dose 2 mg/kg, day 71. The method, then:
In a separate study, female NSG mice between 5-6 weeks of age were injected subcutaneously with MDA-MB-468 cells with moderate Nectin-4 expression. When tumors reached approximately 150-250 mm^3; animals were matched by tumor volume into treatment or control groups and dosing initiated (Day 0, n=8 per group). The test articles were given at a single dose (2 mg/kg) formulated with 5% Dextrose. Tumors were measured biweekly until Day 71.
In both models, a 2 mg/kg single dose treatment of either the nectin-4 ADCs (exemplified herein with each of Abs1-8 conjugated as in Formula XI, and with a DAR of 8) or benchmark enfortumab ADC (enfortumab conjugated with Formula XI, and with a DAR of 8) was used. Tumor growth was measured at day 40 for UMUC3 Nectin-4 clone F7 and day 71 for MDAMB468 xenografts.

For assay [2], the system named is UM-UC-3 Nectin4 clone F7 xenograft. The experiment in a line: Tumor xenograft, high nectin-4 expression. Type of assay: in vivo, mice (nu/nu). The following applies: UMUC3 Nectin-4 clone F7 xenograft, single dose 2 mg/kg, day 40. The protocol:
In order to test the efficacy of the nectin-4 ADCs of the present disclosure, which have effector null mutations in the Fc region, and to compare to the enfortumab antibody, which has wildtype Fc and in an ADC with the same payload background as the ones of this disclosure, two tumor xenograft models with either high or moderate nectin-4 expression were tested as described. Immune compromised female mice (nu/nu) between 5-8 weeks of age with weight 18-20 grams were implanted unilaterally on the right flank with UM-UC-3 Nectin4 clone F7 cells with high nectin-4 expression. […] The test articles were given at a single dose (2 mg/kg) formulated with 5% dextrose. Tumors were measured biweekly until Day 40.

Substitutions are numbered along the chain they refer to.

B1: Ab8 (conjugate)
heavy: QVQLVQSGAEVKKPGASVKVSCKASGYTFTSYYIHWVRQAPGQGLEWMGIINPISGRTSSAQKFQGRVTMTRDTSTSTVYMELSSLRSEDTAVYYCAKEGVGGELLRAFDIWGQGTLVTVSSASTKGPSVFPLAPSSKSTSGGTAALGCLVKDYFPEPVTVSWNSGALTSGVHTFPAVLQSSGLYSLSSVVTVPSSSLGTQTYICNVNHKPSNTKVDKRVEPKSCDKTHTCPPCPAPEAAGGPSVFLFPPKPKDTLMISRTPEVTCVVVSVSHEDPEVKFNWYVDGVEVHNAKTKPREEQYNSTYRVVSVLTVLHQDWLNGKEYKCKVSNKALPAPIEKTISKAKGQPREPQVYTLPPSREEMTKNQVSLTCLVKGFYPSDIAVEWESNGQPENNYKTTPPVLDSDGSFFLYSKLTVDKSRWQQGNVFSCSVMHEALHNHYTQKSLSLSPGK
light: QSVLTQPPSVSEAPRQRVTISCSGSSSNIGNNAVNWYQQLPGKAPKLLIYYDDLLPSGVSDRFSGSKSGTSASLAISGLQSEDEADYYCAAWDDSLNGFVFGGGTKLTVLGQPKAAPSVTLFPPSSEELQANKATLVCLISDFYPGAVTVAWKADSSPVKAGVETTTPSKQSNNKYAASSYLSLTPEQWKSHRSYSCQVTHEGSTVEKTVAPTECS
On to B1, for which the ka was 1.25e+06 M⁻¹ s⁻¹ with cyno Nectin-4, “(6.94 ± 1.14) × 10^5 1/Ms” with human Nectin-4 and 482000 M⁻¹ s⁻¹ in the assay on rat Nectin-4. The results for the kd at cyno Nectin-4, in the assay with human Nectin-4 and on rat Nectin-4 were 0.0524 s⁻¹, “(3.38 ± 0.75) × 10^−2 1/s” and 0.0165 s⁻¹, respectively. In addition, in assay [1], the IC50 turned out to be 0.0694 nM.

B2: Ab7 ADC: Ab7 conjugated as in Formula XI, and with a DAR of 8 (conjugate)
heavy: QVQLVQSGAEVKKPGASVKVSCKASGYTFTNYYMHWVRQAPGQGLEWMGIINPSSGSASYAQKFQGRVTMTRDTSTSTVYMELSSLRSEDTAVYYCAREGVGRDILQAFDIWGQGTLVTVSSASTKGPSVFPLAPSSKSTSGGTAALGCLVKDYFPEPVTVSWNSGALTSGVHTFPAVLQSSGLYSLSSVVTVPSSSLGTQTYICNVNHKPSNTKVDKRVEPKSCDKTHTCPPCPAPEAAGGPSVFLFPPKPKDTLMISRTPEVTCVVVSVSHEDPEVKFNWYVDGVEVHNAKTKPREEQYNSTYRVVSVLTVLHQDWLNGKEYKCKVSNKALPAPIEKTISKAKGQPREPQVYTLPPSREEMTKNQVSLTCLVKGFYPSDIAVEWESNGQPENNYKTTPPVLDSDGSFFLYSKLTVDKSRWQQGNVFSCSVMHEALHNHYTQKSLSLSPGK
light: B1 light with F99H
Consider B2, for which the values for the Mean tumor volume (in the assay with MDA-MB-468 xenograft; in assay [2]) were 245.33 mm^3 and 319.79 mm^3, respectively.

B3: Ab8 ADC: Ab8 conjugated as in Formula XI, and with a DAR of 8 (conjugate)
heavy: B1 heavy
light: B1 light
As for B3, the Mean tumor volume turned out to be 349.91 mm^3 in the assay on MDA-MB-468 xenograft and 820.06 mm^3 in assay [2].
